Read counts are not given, so values of variants with three or more changes are uncertain.
B1: LINE1-mini (parent)
chain: GGCAGAGCUCAACACAGCGUGGCAAAGUGGCUGUGGCUAGACUGCC

Variants of: B1
Test: self-cleavage, relative activity (ratio to wild type); higher = more cleavage; in vitro, sequencing; the parent is a self-cleaving ribozyme
GGACGGGCUCAACACGGCGUGGCAAAGUUGCUGUGGCUAGACUGCC [C3A A4C A6G A16G G29U] showed a self-cleavage of 0.15.
Work on GGCAGUGCUUAACACAGCGUGGCAAAGUGGCUGUGGCUAGUCUGCC [A6U C10U A41U] yielded a self-cleavage of 0.05.
Work on GGCAGAGCGCAUCACAGCGUGGCAUAGUGGCUGUGGCUAGACUGCC [U9G A12U A25U] yielded a self-cleavage of 0.12.
GGCAGAGCGCAACACAGCGUGGCAAAGUUGCUGUGGCUAGGCUGCC [U9G G29U A41G] showed a self-cleavage of 0.23.
In the case of GGCAGAGCUCAACACAGAGUGGCAGAGUGGCUGUGACUAGACUGGC [C18A A25G G36A C45G], the self-cleavage is reported as 0.01.
With GGUAGAGCUCAACCCAGCGUGGCAAAGUGGCUGCGGCUAGACUGCC [C3U A14C U34C] the self-cleavage was 0.08.
With GGUAGACCUCAACACAGCGUUGCAAAGUGGCUGUGGCUAGACUGCC [C3U G7C G21U] the self-cleavage was 0.09.
GGCAGAGCUCAUCACAGGGUGGCAAAGUGGCUGUGGCUAAACUGCC [A12U C18G G40A] showed a self-cleavage of 0.04.
For GGCAGAGCUCAACAGAGCGUGGCACAUUGGCUAAGGCCAGGCAGCC [C15G A25C G27U G33A U34A U38C A41G U43A], the self-cleavage was 0.
For GGCAGCGCUCAUGACAGCGUGGCAAAGUGGCUGUGGCUAGACUGCC [A6C A12U C13G], the self-cleavage was 0.13.
GGCCGAGCUCAACACAGCGUUGCAAAGUGGCUAUGGCUAGACUGCC [A4C G21U G33A] showed a self-cleavage of 0.02.
Variant GGCAAAGCUCAACACAGCUUGGCAAAGUGGCUGUGGCUAGACCGCC [G5A G19U U43C] has a self-cleavage of 0.17.
Variant GGCAGAGCUCAACACAGCAUGGCAAAGUGGCUGUGGCUAGCCUGCU [G19A A41C C46U] has a self-cleavage of 0.01.
GGCAGUGCUCAACACAGCGUGUGAAAGUGGCUGUGACUAGACUGCC [A6U G22U C23G G36A] showed a self-cleavage of 0.49.
GGCAGUGCUCAACACAGCGUGGCCAAGUGGCUGUGGCUAAACUGCC [A6U A24C G40A] showed a self-cleavage of 0.06.
Work on GGUGGAGCACAACACAGCGUGGCAAAGUGGCUGUAGCUAGACUGCC [C3U A4G U9A G35A] yielded a self-cleavage of 0.39.
With GGCAGAGCGCAACACAGCGGGGCAAAGUGGCUGAGGCUAGACUGAC [U9G U20G U34A C45A] the self-cleavage was 0.04.
AGCAGAGCUCGACACAGCGUGGCAAAGUGGCUGUGGCUAAACUGCC [G1A A11G G40A] gave a self-cleavage of 0.04.
GGCAGAGCUCAAGAUUGCGUUGCAAAGUGGCUGUGGCUAGACUGUC [C13G C15U A16U G21U C45U] gave a self-cleavage of 0.09.
GCCAGAGCUAAGCACAGCGUGCCAAAGUGGCUGUGGCUAGACUGCC [G2C C10A A12G G22C] gave a self-cleavage of 0.
For GGCAGAGCUCAAAACAGCGUGGUAAAGUGGCUGUGUCUAGACUGCC [C13A C23U G36U], the self-cleavage was 0.15.
Work on GGCAGAGCUCGACACAGCGUGGCAAAGUGGCAGUGGCUAGGCUGCC [A11G U32A A41G] yielded a self-cleavage of 0.02.
For GGCAGUGCUCAACACAGAGUGGCAAAGUGGCGGUGCCUAGACUGCC [A6U C18A U32G G36C], the self-cleavage was 0.02.
GGCAGAGCCCAACGCAGCGUGGCAACGUGGCUGUGGCUAGACUGCC [U9C A14G A26C] showed a self-cleavage of 0.01.
GGCAGAGCUAAACAUAGCAUGGCCAAGUGGCUGUGGCUAGACUGCC [C10A C15U G19A A24C] showed a self-cleavage of 0.07.
UGCAGAGCUCAACACAGCGUGGAAAAUUGACUGUGGUUAAACUGCC [G1U C23A G27U G30A C37U G40A] gave a self-cleavage of 0.13.
With GGCAGAGCUCAACACAGAAUGGCAAGGGGGCUGUGGCUAGACUGCC [C18A G19A A26G U28G] the self-cleavage was 0.03.
With GGCAGAGCUCAACACAGCUGGGCAAAGUGGCUGUGGCCAGACUGGC [G19U U20G U38C C45G] the self-cleavage was 0.96.
Work on GGCGGAGCUCAACCCAGCGUGGUGAAGUGGCUGUGGCUAGACUGCC [A4G A14C C23U A24G] yielded a self-cleavage of 0.07.
With GGUAGAGCACAUCACAGCGUGGCAAAGUGGCUGUGGCUAGACUGCC [C3U U9A A12U] the self-cleavage was 0.02.
With GGCAGAGCUCAAGACAGCGUGGCGAAGUGGGUGUGGCUAUCCUGCC [C13G A24G C31G G40U A41C] the self-cleavage was 0.
Variant GGCAGAGCUAAACACAGGGUGGCAAAGGGGCUUUGGUUAGACUCCC [C10A C18G U28G G33U C37U G44C] has a self-cleavage of 0.01.
Work on GGCAGAGCUCAAUACAGCGUGGCAAAAUGGUUUUGGCUAGACUGCC [C13U G27A C31U G33U] yielded a self-cleavage of 0.09.
In the case of GGCAGAGCUCAACACAGCGUGGCAAAGUGGCAGUGGCCAGACUUCC [U32A U38C G44U], the self-cleavage is reported as 0.05.
Work on GGCCGAGCUCAACACAGCGUGGCGAAGUGGCUGUGGCUAGACUGCU [A4C A24G C46U] yielded a self-cleavage of 0.14.
Variant GGCAGGACUCAACACAGACUGGCAAAGUGGCUGUGGCCAGACUGCC [A6G G7A C18A G19C U38C] has a self-cleavage of 0.17.
GGCAGAUCUCUACACAGCGUGGUAAAGUAGCUGUUGCUACACUGCC [G7U A11U C23U G29A G35U G40C] gave a self-cleavage of 0.01.
In the case of GGCAGAGCUCAACACAGCGUGGCAGAGUGGCUGUCGCCAGACUGCC [A25G G35C U38C], the self-cleavage is reported as 0.04.
GGCAGAGCUUAACACAGCGUGGCAAAGUGGCUGCGGCUAGAUUGCC [C10U U34C C42U] gave a self-cleavage of 0.02.
In the case of GGCAGAGCUCAACGCAGCGUGGCAAAGUGGCUGUGGAUAGACUUCC [A14G C37A G44U], the self-cleavage is reported as 0.07.
GGCAGAGCUUGACACAGCGUGGAAAAGUGGCUUUGCCUAGACUGCC [C10U A11G C23A G33U G36C] gave a self-cleavage of 0.02.
For GGCAGAGCUCAACACAGCGUGGCAGAGUGUGUGUGGCUAGACUGCC [A25G G30U C31G], the self-cleavage was 0.08.
Variant GUCAGAGCUCCACACAGCGUGGCAAAGUGGCUGUGGCUAGAAUGCC [G2U A11C C42A] has a self-cleavage of 0.
GGGGGAGCUCAACACAGCGUGGCAAAAUGGCUGUGGCUAGACUGCC [C3G A4G G27A] showed a self-cleavage of 0.14.
Work on GGCAGAGCUCAAAACAGCGUGGGAAAGUGUCUAUGGUGAGACCGCC [C13A C23G G30U G33A C37U U38G U43C] yielded a self-cleavage of 0.02.
GGCAGCGCUCAACACAGCGUGGCAAAGUGGCUGUGGCUGGACUCAC [A6C A39G G44C C45A] gave a self-cleavage of 0.06.
Work on GGCAGAGUUCAAUACAACGUAGCAAACUGGCUGUGGCUAGACUGCC [C8U C13U G17A G21A G27C] yielded a self-cleavage of 0.25.
Work on GGAAGAGCUCAACAAAGUGUGGCAAAGUGCCUGUGGCUAGACUGCC [C3A C15A C18U G30C] yielded a self-cleavage of 0.1.
In the case of GGCAGAGCUCAACACAGAGUGGCAACGUGGCUGUGCCUCGACUGCC [C18A A26C G36C A39C], the self-cleavage is reported as 0.
GGCGGAGCUCAACACAGCGUGCCAAAGUGGCGGUGCCUAGAAUGCC [A4G G22C U32G G36C C42A] showed a self-cleavage of 0.04.
Work on GGCAGAGCUCAGCACAGCGUGGUAAAGUGGCUGUGGCUAGACUCCC [A12G C23U G44C] yielded a self-cleavage of 0.04.
With GGCAGAGCUCAACGCAGCGUGGCAACGUGGCUGUCGCUAGACUGCC [A14G A26C G35C] the self-cleavage was 0.13.
For GGCAGAGCUCAACACACUGUGGCACAGUGGCUGUGGCCAGACUGCC [G17C C18U A25C U38C], the self-cleavage was 0.
For GGCAGAACUCAACACAGCGUGGCCAAGUGGCUGUGGCGAGACUGCA [G7A A24C U38G C46A], the self-cleavage was 0.06.
For GGCAGAGCUCAAAACAGCGUAGCAAAGUGGCUGUGGAUAGACUGCC [C13A G21A C37A], the self-cleavage was 0.2.
GGCAGAGCUCAACACAUCGUGGCAAAGUGGAUGUGGCUAGACUGCG [G17U C31A C46G] gave a self-cleavage of 0.49.

From the RNAGym collection of RNA variant scans (doi:10.7554/elife.90254)
